Among all 360,000 compounds or so, about 11,000 (3.1%) were called active. Inconclusive results, whose numbers are uncertain, are shown with a selection of clear calls. The call rests on the fitted dose curve; in most records, active means well fitted inhibition curve with a large enough effect; inconclusive means small, poorly fitted or top-dose-only effect; inactive means no such curve, though single readings can be large or run the other way. No potency is given beside an inconclusive call; the fits are too rough.
Each compound was assayed against Schistosoma mansoni thioredoxin glutathione reductase (TGR) (UniProt Q962Y6) (assay: qHTS Assay for the Inhibitors of Schistosoma Mansoni Peroxiredoxins). Details: purified TGR, DTNB reduction, TNB absorbance 405 nm; activity change, negative = inhibition: at 114 µM (top of the series) unless noted.
How it was run: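 Kinetic colorimetric format: TGR-catalysed, NADPH-driven DTNB reduction monitored via TNB absorbance. Enzyme dispensed at 20 nM; compound exposure 15 min at room temperature before reaction start.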
Further: nearly all actives have a fitted effect of over 60% in size.
On the % scale 0 is the no-effect control and ±100 the full control effect; potency means the concentration at half of the fitted maximal effect; tags describe the fitted curve by direction and shape.

| Compound | Potency | activity change, negative = inhibition |
| --- | --- | --- |
| O=C(NCc1ccccc1)C1CCCN(C(=O)Nc2ccccc2)C1 (centres undefined) | inconclusive [inhibitor, single point] |  |
| CCOc1ccc2nc(N3CCCC(C(=O)NCCc4ccc(SC)cc4)C3)sc2c1 (centres undefined) |  | inactive: -3.57% |
| Cn1c(=O)c(=O)n(C)c2cc(S(=O)(=O)CCC(=O)Nc3c(F)c(F)c(F)c(F)c3F)ccc21 | inconclusive [inhibitor, partial curve] |  |
| CCCCNC(=S)NNC(=O)c1nn(C)c(C)c1Cl | inconclusive [inhibitor, full curve, poor fit] |  |
| Cc1c(Cl)c(C(F)F)nn1CC(=O)NC1C(=O)N2C(C(=O)O)=C(CSc3nnnn3C)CSC12 (centres undefined) | active: 3.98 µM |  |
| O=C(O)[C@@H]1Cc2ccccc2N1 | active: 56.2 µM |  |
| Cc1nc2nc(-c3cccs3)cn2nc1C | inconclusive [inhibitor, partial curve, poor fit] |  |
| CC(c1ccccc1)c1nnc(NC(=O)c2ccc3c(c2)OCO3)s1 (centres undefined) |  | inactive: 10.9% |
| Cc1c(C(=O)N2CCOCC2)sc(NC(=O)CCl)c1C#N | active: 39.8 µM |  |
| O=C(O)c1ccc(N=NN2CCCCC2)cc1 |  | inactive: -1.8% [at 57.1 µM] |
| COc1ccc(CN2CCNC(=O)C2CC(=O)NCC2CCOCC2)c(F)c1 (centres undefined) | inconclusive [inhibitor, partial curve, poor fit] |  |
| Cc1cc(C)c(C(=O)/C=C/c2ccco2)c(=O)[nH]1 | inconclusive [inhibitor, full curve, poor fit] |  |
| Cc1cccc(NC(=O)NC2COc3ccccc3C2)c1C (centres undefined) |  | inactive: 14.8% |
| O=C(/C=C/Sc1ncn[nH]1)c1ccc(Cl)cc1 | active: 0.794 µM |  |
| O=C(NCc1ccco1)C1CCN(C(=O)c2ccc(Cl)cc2Cl)CC1 | inconclusive [inhibitor, partial curve] |  |
| Cc1oc(C)c(S(=O)(=O)NCc2cccs2)c1C(=O)O | inconclusive [inhibitor, partial curve] |  |
| Cc1ccc(/C=N/NC(=O)CSc2nc3ccccc3[nH]2)o1 | inconclusive [inhibitor, partial curve] |  |
| O=C(/C=C/c1ccccc1)Nc1cccc(C(=O)O)c1 |  | inactive: 8.96% |
| COC(=O)c1ccccc1NC(=O)c1nc(S(=O)(=O)Cc2ccccc2)ncc1Cl | active: 2.82 µM |  |
| Cc1ccc(S(=O)(=O)NNC(=S)NC(=O)c2ccc([N+](=O)[O-])cc2)cc1 | active: 7.94 µM |  |
| O=C1C(=O)N(C2CCS(=O)(=O)C2)C(c2cccc(O)c2)/C1=C(/O)c1ccc(Cl)cc1 (centres undefined) | active: 56.2 µM |  |
| O=C(Oc1coc(CSc2ncccn2)cc1=O)c1cccc([N+](=O)[O-])c1 | inconclusive [inhibitor, partial curve] |  |
| CN(C(=O)c1ccco1)c1nnc(-c2ccc(F)cc2)s1 |  | inactive: -9.48% |
| O=C(N/N=C/c1cc(Br)cc(Br)c1O)c1ccncc1 |  | inactive: -1.41% |
| OCC[C@@H]1C[C@@H](O)[C@H](O)[C@]2(CCc3ccccc3CO2)O1 |  | inactive: -18.8% |

| Compound | Potency | activity change, negative = inhibition |
| --- | --- | --- |
| COc1ccc(C2=NN3C(C2)c2ccccc2OC3c2cccs2)cc1 (centres undefined) | inconclusive [inhibitor, partial curve] |  |
| CCOc1cc(C(c2c(C)[nH][nH]c2=O)c2c(C)[nH][nH]c2=O)cc(Cl)c1O | active: 35.5 µM |  |
| O=C(c1ccc2c(c1)OCO2)N1CCN(c2ccc(C(F)(F)F)cn2)CC1 |  | inactive: -2.84% |
| COc1cccc(NCc2cc(=O)oc3cc(C)c(O)cc23)c1 |  | inactive: -13.4% |
| CC(=O)c1c(C)oc(C)c1CSCc1ccc(C(=O)O)o1 | inconclusive [inhibitor, full curve] |  |
| COC(=O)[C@@H]1C[C@H]2CC[C@H](O)C[C@H]2N1Cc1ccccc1OC(=O)c1cccs1 | inconclusive [inhibitor, partial curve] |  |
| O=[N+]([O-])/C=C/c1ccc2c(ccn2Cc2ccccc2)c1 | inconclusive [inhibitor, full curve] |  |
| CCOC(=O)c1[nH]c2ccccc2c1NC(=O)c1ccccc1OC |  | inactive: 6.01% |
| O=C(CCN1CCCCC1c1cccnc1)NCc1ccccc1 (centres undefined) | active: 35.5 µM |  |
| CCCNc1ccc(-c2nc(-c3ccco3)no2)cc1[N+](=O)[O-] | inconclusive [inhibitor, partial curve] |  |
| O=C(CN1CCN(c2ccc(O)cc2)CC1)Nc1cc(S(=O)(=O)N2CCCC2)ccc1Cl | inconclusive [inhibitor, partial curve] |  |
| C/C=C/c1ccc(OCCCN2C(=O)NC(C)(C)C2=O)c(OC)c1 | inconclusive [inhibitor, single point] |  |
| COc1ccccc1NC(CC(=O)c1ccccc1)C(=O)OCC(=O)c1ccc(F)cc1 (centres undefined) | active: 20 µM |  |
| COc1ccc(OC)c(-n2c(SCC(=O)NCc3ccco3)nnc2-c2c[nH]c3ccccc23)c1 | inconclusive [inhibitor, single point] |  |
| COc1cccc(N2CCN(C3OC(=O)c4ccccc43)CC2)c1 (centres undefined) | inconclusive [inhibitor, partial curve] |  |
| CC(=O)N1CC=C2C(C#N)=C(N)C(C#N)(C#N)C(C)C2C1 (centres undefined) | inconclusive [inhibitor, partial curve] |  |
| COc1ccc(-c2cc3ccccc3oc2=O)cc1NC(=S)NC(=O)c1ccc2c(c1)OCCO2 |  | inactive: 3.76% |
| CCc1c(C)c2ccc(O)c(CN(C)C)c2oc1=O | inconclusive [inhibitor, single point] |  |
| COc1cccc(C(=O)Nc2cc(-c3ccccc3)nn2-c2ccccc2)c1 | inconclusive [inhibitor, single point] |  |
| CC(C)CCN1CCN(C/C=C/c2ccco2)CC1CCO (centres undefined) | active: 25.1 µM |  |
| CNC(=S)N/N=C/c1ccc(-c2ccc(C(=O)O)cc2)o1 | inconclusive [inhibitor, partial curve] |  |
| Cc1ccc(NC(=O)c2nc(S(=O)(=O)Cc3cccc(C)c3)ncc2Cl)cc1 | active: 12.6 µM |  |
| O=C(O)CNc1nc(-c2ccccc2)c2cc([N+](=O)[O-])ccc2n1 |  | inactive: -13.9% |
| CC1CCC/C(=C\Nc2ccccc2C(=O)O)C1=O (centres undefined) | inconclusive [inhibitor, partial curve] |  |
| COc1ccc(C(=O)c2c3ccc([N+](=O)[O-])cc3[n+]([O-])n2CCCC(N)=O)cc1 | inconclusive [inhibitor, partial curve] |  |

| Compound | Potency | activity change, negative = inhibition |
| --- | --- | --- |
| Cc1cccc2cc3c(nc12)SC(=NCC1CCCO1)N(Cc1ccco1)C3 (centres undefined) | inconclusive [inhibitor, full curve, poor fit] |  |
| O=C(O)/C=C/C(=O)Nc1ccc(Cl)cc1C(=O)c1ccccc1 | active: 22.4 µM |  |
| O=C(CN(c1cccc(C(F)(F)F)c1)S(=O)(=O)c1ccc(Cl)c([N+](=O)[O-])c1)NCc1ccc(F)cc1 | inconclusive [inhibitor, full curve, poor fit] |  |
| COc1ccc(CN2CCNC(=O)C2CC(=O)N(C)CCC2CCOCC2)cc1OC (centres undefined) | inconclusive [inhibitor, partial curve] |  |
| Cc1cc(NC(=O)C2CCC(CNS(=O)(=O)c3ccc(Br)s3)CC2)ccc1Br (centres undefined) |  | inactive: 1.31% |
| CC1CCN(CC(=O)Nc2ccc(Cl)cc2[N+](=O)[O-])CC1 |  | inactive: 0% |
| CC1(C)CC(=O)C(N=Nc2cccc([N+](=O)[O-])c2)=C(O)C1 | inconclusive [inhibitor, partial curve] |  |
| CCOc1ccccc1-n1c(CN2CCN(C(=O)c3ccco3)CC2)nc2ccccc2c1=O | active: 25.1 µM |  |
| c1ccc(Cn2c(-c3ccccc3)c[n+]3c2SCCC3)cc1 |  | inactive: 6.62% |
| Cc1ccc(NC(=S)N2CCC(N(C)CC3CCCO3)CC2)cc1 (centres undefined) | inconclusive [inhibitor, partial curve] |  |
| C/C=C/C=C\C(=O)Nc1cccc(C2=NOC3(C2)C[C@H](C(N)=O)N(C(=O)CC#N)C3)c1 (some centres undefined) | active: 2 µM |  |
| COc1cc(SC)ccc1C(=O)N1CC(C)OC(C)C1 (centres undefined) | inconclusive [inhibitor, full curve, poor fit] |  |
| CN(CC(=O)Nc1ccccc1Cl)CC(=O)c1c(N)n(Cc2ccccc2)c(=O)n(C)c1=O |  | inactive: 0.151% |
| CCCOc1ccc(C(O)CCNC(CC(=O)O)c2ccccc2)cc1 (centres undefined) | inconclusive [inhibitor, partial curve] |  |
| COC(=O)C1=Nc2ccccc2/C1=C\c1c(O)n(-c2ccc(Br)cc2)c(=O)[nH]c1=O | inconclusive [inhibitor, full curve, poor fit] |  |
| CC(C)(C)OC(=O)N1CCC(c2c(C(=O)N3CCN(C(=O)c4ccco4)CC3)cnn2-c2ccccc2Cl)CC1 | inconclusive [inhibitor, partial curve] |  |
| CSc1ccc(Cl)c(C(=O)OCC(=O)NCc2ccco2)c1 | inconclusive [inhibitor, full curve] |  |
| CCOC(=O)c1c(NC(=O)CSc2cn(CCNC(=O)c3ccccc3F)c3ccccc23)sc2c1CCCC2 |  | inactive: -0.863% |
| CCC(=O)Nc1ccc(NC(=O)Cc2ccccc2)cn1 |  | inactive: 0% |
| Cc1cc2oc(C(=O)Nc3ccc(S(=O)(=O)N4CCCC(C)C4)cc3)cc(=O)c2cc1Cl (centres undefined) |  | inactive: -1.21% |
| O=C(NCc1ccco1)c1cc2c(s1)CSC2 | active: 17.8 µM |  |
| COc1ccc2c(c1)C1(Nc3ccccc3C(=O)N1c1ccccc1)C(=O)N2 (centres undefined) |  | inactive: 3.3% |
| COc1ccc(C2=NOC(C(=O)Nc3ccc4c(c3)OCCO4)C2)cc1OC (centres undefined) | active: 31.6 µM |  |
| CC1CCCN(Cc2c(O)ccc3c2O/C(=C\c2ccco2)C3=O)C1 (centres undefined) | active: 25.1 µM |  |

Source: PubChem BioAssay AID485364 (National Center for Advancing Translational Sciences (NCATS), 2010)
